# Reference: the supplement of paper PMC3334620
# Over roughly 33,000 sequences, “E-score (-0.5 to 0.5)” has its median near -0.035; the highest 2% begin near 0.34. The list shows a part of the results.
# Target: T1, Mot3 (UniProt P54785)
# T1 sequence: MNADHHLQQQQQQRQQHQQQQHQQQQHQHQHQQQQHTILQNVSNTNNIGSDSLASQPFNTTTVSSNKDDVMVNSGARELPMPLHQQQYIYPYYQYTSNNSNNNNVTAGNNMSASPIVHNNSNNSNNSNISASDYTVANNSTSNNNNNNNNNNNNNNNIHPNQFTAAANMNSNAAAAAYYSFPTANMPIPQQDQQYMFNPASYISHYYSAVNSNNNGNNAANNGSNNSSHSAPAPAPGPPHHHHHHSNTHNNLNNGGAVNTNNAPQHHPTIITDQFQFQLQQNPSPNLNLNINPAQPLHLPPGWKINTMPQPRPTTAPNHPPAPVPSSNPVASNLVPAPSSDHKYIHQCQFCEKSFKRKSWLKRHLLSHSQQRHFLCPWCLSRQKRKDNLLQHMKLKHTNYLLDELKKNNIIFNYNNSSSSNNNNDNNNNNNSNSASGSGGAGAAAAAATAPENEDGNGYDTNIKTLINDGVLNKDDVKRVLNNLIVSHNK
# Assay: PBM E-score (8-mer binding enrichment) (E-score (-0.5 to 0.5)); higher = stronger / more preferred TF binding; most listed sequences are background and not binding sites
# Details: protein concentration: 200 nM; construct: GST-full length
# Method: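 Universal 'all 10-mer' protein binding microarrays (Agilent AMADID 015681) probed with GST-tagged S. cerevisiae TFs (full-length or DBD) made by in vitro transcription/translation (PURExpress), about 100-200 nM. Bound TF was detected with fluorescent anti-GST. Each ungapped 8-mer (which stands for itself and its reverse complement) is scored by the PBM enrichment score (E-score), a modified Wilcoxon-Mann-Whitney statistic from -0.5 to +0.5, computed with the Universal PBM Analysis Suite. Scale: above 0.35 generally sequence-specific binding.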
row,Sequence,PBM E-score
1,AAACTCTG,0.135
2,CGGGCACC,0.17
3,AGAGGCGG,-0.193
4,ATGACCGA,-0.238
5,CTACCCGA,0.0334
6,CGTACTAG,-0.0991
7,GGACCTTA,-0.106
8,CCCTAGGC,0.0159
9,TAGTGAAA,0.0747
10,ACTAGTGA,-0.0148
11,ATTAACCC,-0.021
12,TAGAATCA,-0.00353
13,CGGGCCAC,-0.257
14,CCATCCTA,-0.148
15,CCCATGTC,0.0657
16,CTCCCTTA,-0.018
17,AATGCGAC,-0.00455
18,CACGGGAC,-0.155
19,GCCCAAGC,-0.141
20,AAAACTTG,0.194
21,AGTAGCGC,-0.154
22,GCTTGGAC,-0.124
23,GGTCGCCA,-0.278
24,GCAGCCGC,-0.156
25,CTAAATTA,0.0921

row,Sequence,PBM E-score
1,CATCACGG,-0.0765
2,ACGCGTAG,0.26
3,CTCCATCC,-0.196
4,AACAACCA,0.108
5,GGTATGGA,-0.183
6,AACTGACC,-0.239
7,CGATGTAA,0.33
8,ATACAAGA,0.172
9,GGATCTAC,0.0501
10,TCGAAAGA,-0.101
11,CCCAATGA,-0.0677
12,AAGGTGCT,0.0153
13,GACTAGGC,0.116
14,CTAAGCAC,-0.015
15,GTCAGGAA,0.277
16,CCACCTTA,-0.034
17,CAGTGTCC,0.00077
18,ACGCTGAT,0.214
19,AACCGGCT,-0.284
20,GTAAAATA,0.162
21,ATAGCTTG,-0.109
22,CGATATCC,-0.178
23,AATGAGCG,0.112
24,GCTTAAAA,-0.0363
25,CATTTCCA,0.13

row,Sequence,PBM E-score
1,ATACTGCC,-0.204
2,CGTATAAC,0.172
3,ACGGCGTC,-0.0613
4,AATTGGTG,-0.108
5,GCGTCCAC,-0.291
6,GGACATAA,-0.017
7,AGCACCCC,-0.292
8,CTCCAGAA,-0.0339
9,ACATCTAT,0.0997
10,AACAAGTC,0.166
11,AAGACATA,0.0725
12,CTCGGGGA,-0.167
13,ATGGGGCA,-0.2
14,CAACTGAA,0.0709
15,GGAGATCA,-0.0975
16,ACCCAGGC,0.136
17,CCGCCGAA,-0.0458
18,CTCGCAAG,-0.105
19,AGTATTAA,0.191
20,GTGAGTTA,0.0127
21,AGTGATGA,0.0151
22,CGCGGGAA,0.0452
23,ATAATAAG,0.0942
24,TAGTAAGA,-0.00784
25,CTCGCCCC,-0.205

row,Sequence,PBM E-score
1,CAACACCC,-0.0891
2,GTGTTGTA,0.283
3,AGGCTAAC,0.0644
4,CGGCGGTC,-0.192
5,CCTCACTC,-0.167
6,GGGCCCCC,-0.376
7,TGAGCGAA,-0.125
8,AACCCCGA,-0.00295
9,CCGTAAGA,-0.115
10,CTAGAACA,0.0902
11,ACCTTAGC,-0.0753
12,CTGGCTGA,-0.368
13,GTGTAGTA,0.292
14,AACGTCGT,-0.00675
15,AGGGTCAT,0.0278
16,AGCGTACG,-0.127
17,GAAAGCAA,0.134
18,ACACGATA,0.345
19,GACCTAAA,-0.086
20,AGGTAGGA,0.026
21,CTAGGGAG,-0.18
22,TGGTCCAA,-0.152
23,CATTCGCA,-0.0349
24,GAATGTGA,-0.0391
25,TCACCTAA,-0.0781

row,Sequence,PBM E-score
1,AGTTGGAA,-0.213
2,AATCGGTA,0.142
3,AATCGCGT,0.194
4,CTCCACTA,-0.00841
5,ATCAGTTC,-0.222
6,AGATCCAG,-0.11
7,GAGAGCTC,-0.31
8,ATTAATAG,0.192
9,AGTCGCAA,0.0417
10,CTCAAAGC,-0.205
11,AAGGCCCT,0.0177
12,CCCACCAA,-0.125
13,CACCAGTA,-0.0226
14,GCAGTGGC,-0.3
15,AGAGACGA,-0.246
16,ACCGTTCC,0.101
17,CCGTGAGC,-0.144
18,ATAGGGGC,-0.106
19,ACTACGCG,0.289
20,AGACCACA,-0.0763
21,CCGAATCG,-0.149
22,AGAAGAGC,-0.0798
23,GAACTGGC,-0.128
24,AATTATGT,0.301
25,AAACGTCG,-0.109

row,Sequence,PBM E-score
1,CGAAAAAC,0.0519
2,GGATGCAA,-0.148
3,GTTGTGGA,-0.0446
4,AAGTGCCA,0.0649
5,CGAGCATA,-0.294
6,GTAACTGA,0.034
7,CAAGGCTC,0.0281
8,CCCGTCCC,-0.272
9,AAACATAT,0.231
10,CGATCGTC,-0.199
11,CAGCGTAA,0.0403
12,CCACAGTC,-0.269
13,TCAACCGA,0.131
14,CAGTATGG,-0.159
15,AAACTGGA,-0.0913
16,CATTACAA,0.301
17,AATCACTG,-0.121
18,GTATGAAC,0.0103
19,AATCTTTC,-0.0839
20,GCACCCTA,0.129
21,AATCCGTA,-0.0768
22,GACATACC,0.167
23,ATACACTG,0.0308
24,ACACTCGG,0.0176
25,GCTGGGAC,-0.284

row,Sequence,PBM E-score
1,CTATACAG,0.168
2,CGCACGAG,-0.185
3,AGTTCTTA,-0.0625
4,ATATACCC,-0.0104
5,ATGAGAAT,0.03
6,CGCGAGCG,-0.311
7,AAGACACT,-0.0137
8,AGGTCTGG,-0.252
9,CGGTGCGC,-0.195
10,CACTGCTC,-0.267
11,CACGTCTA,0.159
12,GGTTATAC,0.031
13,ACGGACCT,-0.0982
14,GGCGGGCA,-0.0728
15,AGGAAGCG,-0.0464
16,AACAGTCC,-0.258
17,AGATCGCA,-0.116
18,TCAGATAA,-0.0998
19,AGGCATCA,0.409
20,CGAAGAGA,-0.117
21,ACGCCCAG,0.0736
22,CGCCGACC,-0.266
